These are yes or no findings as the source states them, for the method shown. For some of these results: In cells and extracts the contact can be indirect. Some results given as binding are weak or reduced against the parent protein; the word gives no strength. For some of these results: Where a sequence is shown, tags or fusion partners need not be part of it.

Sequences of proteins named here, by UniProt entry; tags and fusion partners are left off. Residues count along the entry.
UniProt P38398: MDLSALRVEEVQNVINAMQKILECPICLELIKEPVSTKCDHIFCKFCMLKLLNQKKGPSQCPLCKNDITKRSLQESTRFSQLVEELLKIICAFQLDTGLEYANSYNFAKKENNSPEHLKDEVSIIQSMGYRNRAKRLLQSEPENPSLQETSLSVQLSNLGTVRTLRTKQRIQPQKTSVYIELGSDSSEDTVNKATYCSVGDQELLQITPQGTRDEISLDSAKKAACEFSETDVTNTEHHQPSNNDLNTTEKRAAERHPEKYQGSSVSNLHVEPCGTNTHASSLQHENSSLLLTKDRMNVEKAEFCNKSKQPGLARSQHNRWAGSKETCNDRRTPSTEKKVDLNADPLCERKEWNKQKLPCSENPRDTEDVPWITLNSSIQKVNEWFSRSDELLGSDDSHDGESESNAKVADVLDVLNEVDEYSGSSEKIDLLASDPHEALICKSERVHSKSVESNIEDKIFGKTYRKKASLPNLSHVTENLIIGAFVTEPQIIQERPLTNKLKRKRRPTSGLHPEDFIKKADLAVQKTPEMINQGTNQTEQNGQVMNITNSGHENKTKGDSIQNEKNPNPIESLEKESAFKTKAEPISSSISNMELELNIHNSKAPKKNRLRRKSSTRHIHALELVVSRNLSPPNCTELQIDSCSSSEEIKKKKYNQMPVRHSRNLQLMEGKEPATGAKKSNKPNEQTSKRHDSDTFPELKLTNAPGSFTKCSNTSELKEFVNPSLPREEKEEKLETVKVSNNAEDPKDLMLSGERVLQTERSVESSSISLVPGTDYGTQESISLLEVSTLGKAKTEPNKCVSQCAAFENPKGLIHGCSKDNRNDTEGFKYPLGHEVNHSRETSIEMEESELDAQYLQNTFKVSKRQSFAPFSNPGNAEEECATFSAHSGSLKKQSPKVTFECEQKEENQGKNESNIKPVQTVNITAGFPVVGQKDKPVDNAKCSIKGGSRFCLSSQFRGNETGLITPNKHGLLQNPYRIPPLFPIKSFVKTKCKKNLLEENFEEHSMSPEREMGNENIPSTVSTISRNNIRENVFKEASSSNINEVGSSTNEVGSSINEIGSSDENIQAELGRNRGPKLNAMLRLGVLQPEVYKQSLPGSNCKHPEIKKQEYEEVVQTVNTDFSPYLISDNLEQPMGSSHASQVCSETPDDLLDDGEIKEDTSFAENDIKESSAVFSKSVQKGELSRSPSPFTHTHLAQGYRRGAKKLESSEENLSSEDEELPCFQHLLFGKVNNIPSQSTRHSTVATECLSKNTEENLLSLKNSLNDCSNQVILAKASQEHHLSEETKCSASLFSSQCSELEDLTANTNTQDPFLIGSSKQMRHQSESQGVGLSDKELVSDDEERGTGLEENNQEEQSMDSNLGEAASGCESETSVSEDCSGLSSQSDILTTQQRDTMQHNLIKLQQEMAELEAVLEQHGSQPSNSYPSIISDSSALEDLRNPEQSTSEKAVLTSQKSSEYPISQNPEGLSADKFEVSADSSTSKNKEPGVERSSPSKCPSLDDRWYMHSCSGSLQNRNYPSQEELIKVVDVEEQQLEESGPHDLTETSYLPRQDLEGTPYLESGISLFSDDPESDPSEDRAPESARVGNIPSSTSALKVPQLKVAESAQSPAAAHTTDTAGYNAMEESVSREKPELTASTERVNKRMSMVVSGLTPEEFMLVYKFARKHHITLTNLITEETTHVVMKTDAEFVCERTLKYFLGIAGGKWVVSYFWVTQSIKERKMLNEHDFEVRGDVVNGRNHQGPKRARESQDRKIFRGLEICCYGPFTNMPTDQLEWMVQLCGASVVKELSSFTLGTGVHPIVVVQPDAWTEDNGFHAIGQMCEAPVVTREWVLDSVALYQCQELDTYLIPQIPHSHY
UniProt Q99728, residues 566-777: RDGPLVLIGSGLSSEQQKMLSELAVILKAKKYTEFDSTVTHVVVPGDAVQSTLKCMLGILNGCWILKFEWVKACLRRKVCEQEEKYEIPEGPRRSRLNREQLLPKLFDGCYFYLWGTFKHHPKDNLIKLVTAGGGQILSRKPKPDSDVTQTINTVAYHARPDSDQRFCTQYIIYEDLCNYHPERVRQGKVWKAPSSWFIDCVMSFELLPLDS

The target of experiment [1] is T1, His-IARS1ΔUBX2, C-terminal-truncated human IARS1 (residues 1−1150) (human) (UniProt P41252).
T1 sequence: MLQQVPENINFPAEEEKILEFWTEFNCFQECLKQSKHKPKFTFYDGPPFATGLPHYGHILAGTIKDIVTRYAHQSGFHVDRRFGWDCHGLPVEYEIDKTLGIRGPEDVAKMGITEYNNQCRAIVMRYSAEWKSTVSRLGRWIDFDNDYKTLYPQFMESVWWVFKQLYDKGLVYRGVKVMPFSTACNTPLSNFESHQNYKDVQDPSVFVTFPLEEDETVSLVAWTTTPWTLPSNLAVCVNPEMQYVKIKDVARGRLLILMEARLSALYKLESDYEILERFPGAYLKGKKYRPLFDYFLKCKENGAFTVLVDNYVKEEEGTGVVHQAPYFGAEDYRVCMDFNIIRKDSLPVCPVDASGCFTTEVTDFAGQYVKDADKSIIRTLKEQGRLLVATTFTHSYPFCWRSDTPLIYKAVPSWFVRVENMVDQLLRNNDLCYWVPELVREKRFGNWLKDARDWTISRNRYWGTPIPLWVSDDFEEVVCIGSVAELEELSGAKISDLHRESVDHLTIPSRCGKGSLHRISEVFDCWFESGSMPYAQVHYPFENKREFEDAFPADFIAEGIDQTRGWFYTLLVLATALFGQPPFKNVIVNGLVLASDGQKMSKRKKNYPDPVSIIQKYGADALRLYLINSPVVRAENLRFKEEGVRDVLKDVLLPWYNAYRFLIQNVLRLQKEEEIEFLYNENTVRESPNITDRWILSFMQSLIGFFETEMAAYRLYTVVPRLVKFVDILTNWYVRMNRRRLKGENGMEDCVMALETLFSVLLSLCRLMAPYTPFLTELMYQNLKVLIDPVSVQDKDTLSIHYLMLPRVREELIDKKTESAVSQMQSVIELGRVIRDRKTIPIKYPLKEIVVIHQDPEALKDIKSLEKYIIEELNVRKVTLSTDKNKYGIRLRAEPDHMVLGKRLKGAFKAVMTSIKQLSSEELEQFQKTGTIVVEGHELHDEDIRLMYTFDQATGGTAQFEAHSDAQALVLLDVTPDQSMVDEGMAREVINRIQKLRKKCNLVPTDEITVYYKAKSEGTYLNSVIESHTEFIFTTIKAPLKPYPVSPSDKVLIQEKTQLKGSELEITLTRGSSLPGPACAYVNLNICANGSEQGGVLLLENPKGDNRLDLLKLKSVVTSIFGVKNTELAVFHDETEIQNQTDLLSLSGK
Description: pull-down; human His-IARS1 or IARS1ΔUBX2 mixed with human GST-EARS1 at 1:1.5, 30 min at 4 °C, Ni-sepharose beads 2 hr at 4 °C, eluted with 250 mM imidazole in His A buffer (20 mM Tris-HCl pH 7.4, 300 mM NaCl, 7 mM 2-mercaptoethanol, 5% glycerol), SDS-PAGE and Coomassie; both purified.

Experiment [2] deals with endogenous BRCA1 (human (endogenous in HCT116, HeLa)) (UniProt P38398). Description: co-IP; nuclear fraction of HeLa cells, agarose conjugated with an anti-BRCA1 antibody (D-9 AC) overnight at 4 °C, endogenous proteins.
Experiment [3] has as its target Flag-tagged full-length EPRS1 S688E (human) (UniProt P07814). Description: co-IP; Flag-tagged EPRS1 proteins in HEK293T lysate, anti-Flag M2 agarose beads 2 h at 4 °C, eluted with Flag peptide, immunoblot with anti-IARS1 or anti-LARS1. Background: In western blotting, separated proteins are transferred to a membrane and probed.
In experiment [4] the target is Flag-tagged full-length EPRS1 S691E (human) (UniProt P07814). Described as above.
Experiment [5] concerns the target Flag-tagged, full-length EPRS1 wild-type protein (human) (UniProt P07814). The experiment is described as above.
For experiment [6], the target named is Flag-tagged EPRS1 mutant lacking the hairpin loop (human) (UniProt P07814). The description is as above.
For experiment [7], the target named is endogenous BRCA1 (human (endogenous in HCT116, HeLa)) (UniProt P38398). The experiment in a line: co-IP; endogenous BRCA1 immunoprecipitated with an anti-BRCA1 antibody (D-9) and protein G beads from HCT116 lysate, immunoblot with anti-IARS1.
The target of experiment [8] is wild-type Flag-tagged BRCA1 (UniProt P38398). The experiment in a line: co-IP; Flag-tagged BRCA1 (wild type, ΔRING, ΔBRCT) co-transfected with HA-tagged IARS1 in HEK293T, anti-Flag immunoprecipitation, immunoblot with anti-HA.
In experiment [9] the target is BRCA1–BARD1 complex (Flag-tagged BRCA1) (UniProt P38398). The experiment in a line: pull-down; in vitro affinity pull-down of IARS1 with the BRCA1-BARD1 complex via the Flag tag of BRCA1; immunoblot with anti-Flag and anti-His; both purified.
Experiment [10] addresses BRCT domain (residues 566–777) of BARD1 (UniProt Q99728). Description: pull-down; in vitro pull-down of IARS1 with fragments of the BRCA1-BARD1 complex; both purified.

B1: GST-EARS1 with three WHEP motifs (human EPRS1 residues 1–1015) (domain or fragment, UniProt P07814 1-1015)
chain: MATLSLTVNSGDPPLGALLAVEHVKDDVSISVEEGKENILHVSENVIFTDVNSILRYLARVATTAGLYGSNLMEHTEIDHWLEFSATKLSSCDSFTSTINELNHCLSLRTYLVGNSLSLADLCVWATLKGNAAWQEQLKQKKAPVHVKRWFGFLEAQQAFQSVGTKWDVSTTKARVAPEKKQDVGKFVELPGAEMGKVTVRFPPEASGYLHIGHAKAALLNQHYQVNFKGKLIMRFDDTNPEKEKEDFEKVILEDVAMLHIKPDQFTYTSDHFETIMKYAEKLIQEGKAYVDDTPAEQMKAEREQRIDSKHRKNPIEKNLQMWEEMKKGSQFGQSCCLRAKIDMSSNNGCMRDPTLYRCKIQPHPRTGNKYNVYPTYDFACPIVDSIEGVTHALRTTEYHDRDEQFYWIIEALGIRKPYIWEYSRLNLNNTVLSKRKLTWFVNEGLVDGWDDPRFPTVRGVLRRGMTVEGLKQFIAAQGSSRSVVNMEWDKIWAFNKKVIDPVAPRYVALLKKEVIPVNVPEAQEEMKEVAKHPKNPEVGLKPVWYSPKVFIEGADAETFSEGEMVTFINWGNLNITKIHKNADGKIISLDAKLNLENKDYKKTTKVTWLAETTHALPIPVICVTYEHLITKPVLGKDEDFKQYVNKNSKHEELMLGDPCLKDLKKGDIIQLQRRGFFICDQPYEPVSPYSCKEAPCVLIYIPDGHTKEMPTSGSKEKTKVEATKNETSAPFKERPTPSLNNNCTTSEDSLVLYNRVAVQGDVVRELKAKKAPKEDVDAAVKQLLSLKAEYKEKTGQEYKPGNPPAEIGQNISSNSSASILESKSLYDEVAAQGEVVRKLKAEKSPKAKINEAVECLLSLKAQYKEKTGKEYIPGQPPLSQSSDSSPTRNSEPAGLETPEAKVLFDKVASQGEVVRKLKTEKAPKDQVDIAVQELLQLKAQYKSLIGVEYKPVSATGAEDKDKKKKEKENKSEKQNKPQKQNDGQRKDPSKNQGGGLSSSGAGEGQGPKKQTRLG
B1: the binding entry in experiment [1] is “no binding”.

B2: endogenous IARS1 (enzyme, UniProt P41252 1-1262)
chain: MLQQVPENINFPAEEEKILEFWTEFNCFQECLKQSKHKPKFTFYDGPPFATGLPHYGHILAGTIKDIVTRYAHQSGFHVDRRFGWDCHGLPVEYEIDKTLGIRGPEDVAKMGITEYNNQCRAIVMRYSAEWKSTVSRLGRWIDFDNDYKTLYPQFMESVWWVFKQLYDKGLVYRGVKVMPFSTACNTPLSNFESHQNYKDVQDPSVFVTFPLEEDETVSLVAWTTTPWTLPSNLAVCVNPEMQYVKIKDVARGRLLILMEARLSALYKLESDYEILERFPGAYLKGKKYRPLFDYFLKCKENGAFTVLVDNYVKEEEGTGVVHQAPYFGAEDYRVCMDFNIIRKDSLPVCPVDASGCFTTEVTDFAGQYVKDADKSIIRTLKEQGRLLVATTFTHSYPFCWRSDTPLIYKAVPSWFVRVENMVDQLLRNNDLCYWVPELVREKRFGNWLKDARDWTISRNRYWGTPIPLWVSDDFEEVVCIGSVAELEELSGAKISDLHRESVDHLTIPSRCGKGSLHRISEVFDCWFESGSMPYAQVHYPFENKREFEDAFPADFIAEGIDQTRGWFYTLLVLATALFGQPPFKNVIVNGLVLASDGQKMSKRKKNYPDPVSIIQKYGADALRLYLINSPVVRAENLRFKEEGVRDVLKDVLLPWYNAYRFLIQNVLRLQKEEEIEFLYNENTVRESPNITDRWILSFMQSLIGFFETEMAAYRLYTVVPRLVKFVDILTNWYVRMNRRRLKGENGMEDCVMALETLFSVLLSLCRLMAPYTPFLTELMYQNLKVLIDPVSVQDKDTLSIHYLMLPRVREELIDKKTESAVSQMQSVIELGRVIRDRKTIPIKYPLKEIVVIHQDPEALKDIKSLEKYIIEELNVRKVTLSTDKNKYGIRLRAEPDHMVLGKRLKGAFKAVMTSIKQLSSEELEQFQKTGTIVVEGHELHDEDIRLMYTFDQATGGTAQFEAHSDAQALVLLDVTPDQSMVDEGMAREVINRIQKLRKKCNLVPTDEITVYYKAKSEGTYLNSVIESHTEFIFTTIKAPLKPYPVSPSDKVLIQEKTQLKGSELEITLTRGSSLPGPACAYVNLNICANGSEQGGVLLLENPKGDNRLDLLKLKSVVTSIFGVKNTELAVFHDETEIQNQTDLLSLSGKTLCVTAGSAPSLINSSSTLLCQYINLQLLNAKPQECLMGTVGTLLLENPLGQNGLTHQGLLYEAAKVFGLRSRKLKLFLNETQTQEITEDIPVKTLNMKTVYVSVLPTTADF
Consider B2, for which the binding result in experiment [2] is given as “binds”; in experiment [3], “no binding”; in experiment [4], “no binding”; in experiment [5] it was “binds”; in experiment [6], “binds weakly”; in experiment [7] it was “binds”.

B3: HA-tagged IARS1 (enzyme, UniProt P41252 1-1262)
chain: B2 chain
As for B3, the binding result in experiment [8] is on record as “binds”.

B4: His-IARS1, full-length human IARS1 (residues 1−1262) (enzyme, UniProt P41252 1-1262)
chain: B2 chain
Turning to B4, the results for the binding entry in [9] and in experiment [10] were “binds” and “no binding”, respectively.

Values taken from article PMC9643514.
